# Laboratory results as given in PubChem BioAssay AID686978 (National Center for Advancing Translational Sciences (NCATS), 2013).
# Values joined by “and” are separate entries in the source; they are usually repeats but may differ in a detail not shown here. Equal entries are not always repeated. The campaign covered roughly 420,000 compounds. About 64,000 (15%) were called active. The shares of active, inactive and inconclusive entries below differ from those in the screen. Calls come from the whole dose curve; as a rule, active = well fitted inhibition curve with a large enough effect; inconclusive = small, poorly fitted or top-dose-only effect; inactive = flat fitted curve, though single readings scatter. No potency is given beside an inconclusive call; the fits are too rough.
# Experiment: qHTS for Inhibitors of human tyrosyl-DNA phosphodiesterase 1 (TDP1): qHTS in cells in absence of CPT; note: nearly all actives have a fitted effect of over 55% in size
# Conditions: DT40 Tdp1-/- hTDP1 cells, no CPT, ATP luminescence, 48 h; activity change, negative = growth inhibition: at 46.2 µM (top of the series) unless noted
# How it was run: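 DT40 Tdp1-/-;hTDP1 cells, no CPT (DMSO vehicle only), 400 cells/well; compounds pin-transferred; ≥48 hr, 37 °C; CellTiter-Glo 30 min RT dark, luminescence read.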
# % is set by controls: 0 for no effect and ±100 for the full control effect; potency is the fitted concentration of half-maximal effect; tags give direction and shape of the fitted curve.
Compound,Potency,"activity change, negative = growth inhibition"
C=C1CCN(C(CC(C)C)C(=O)OC)S(=O)(=O)c2ccccc21 (centres undefined),"inconclusive [inhibitor, single point]",
COCCNC(=O)C1CCN(Cc2cccc(OCc3ccccc3)c2)CC1,inactive,
O=C(Nc1ccc(Cl)cc1)c1cc2c(Cl)nc3ccccc3c2s1,inactive,
Nc1nonc1-n1nnc(C(=O)N/N=C/c2ccc(Br)cc2)c1CN1CCOCC1,,inconclusive: -32.9% [inhibitor]
C=CCNc1nc2ccccc2nc1NS(=O)(=O)c1ccc(Br)cc1,inactive,
CCn1cc(CN2CCC(C(=O)Nc3ccc(Oc4cccnc4)cc3)CC2)c(C)n1,"inconclusive [inhibitor, partial curve]",
CCc1nnc2c3ccccc3nc(Nc3ccc(F)c(Cl)c3)n12,active: 18.4 µM,
CN1CCN(C(=O)C2CCC(=O)N(CCc3cccc(F)c3)C2)CC1 (centres undefined),inactive,
CCc1c(O)nc(SC2CC(=O)N(c3ccccc3)C2=O)[nH]c1=O (centres undefined),inactive,
COc1ccc(S(=O)(=O)N(C)C[C@H]2Oc3ccc(NS(=O)(=O)c4cccs4)cc3C(=O)N([C@H](C)CO)C[C@@H]2C)cc1,"inconclusive [inhibitor, single point]",
c1ccc(-c2nc3ccccc3[nH]2)cc1,inactive,
Oc1c(Cl)cc(Cl)c2c1NCCC2,active: 10.3 µM,
CCNC(=O)C1(C)CCN(C(=O)c2ccc(C(F)(F)F)cc2)C1 (centres undefined),inactive,
CC(C(=O)N(C)Cc1cccc(F)c1)N1CCN(S(=O)(=O)c2ccc3c(c2)OCCCO3)CC1 (centres undefined),"inconclusive [inhibitor, single point]",
COc1cc(C(=O)OCCCN2CCCN(CCCOC(=O)c3cc(OC)c(OC)c(OC)c3)CC2)cc(OC)c1OC,active: 23.7 µM,
COC(=O)CSc1nc2sc3c(c2c(=O)n1Cc1ccccc1)CCC(C(C)(C)C)C3 (centres undefined),inactive,
COc1cccc(-n2nnnc2SCC(=O)Nc2ccc(NC(C)=O)cc2)c1,active: 23.1 µM,
CC(/C=C/c1ccccc1)=N\NC(=O)C1CC1(C)c1ccccc1 (centres undefined),active: 18.4 µM,
COC(=O)C1=C(C)NC(C)=C([N+](=O)[O-])C1c1ccccc1C(F)(F)F (centres undefined),active: 18.4 µM and active: 12.3 µM,
COCCNC(=O)c1cc2c(s1)-c1ccc(Cl)cc1SC2,"inconclusive [inhibitor, single point]",
COc1cccc(C(=O)Nc2ccc(C(=O)c3ccncc3)cc2)c1,"inconclusive [inhibitor, single point]",
O=C(CSc1n[nH]c(-c2ccccn2)n1)Nc1ccccc1,"inconclusive [inhibitor, single point]",
CCOC(=O)c1nnn2c1nc(N(CC)CC)c1ccccc12,"inconclusive [inhibitor, partial curve]",

Compound,Potency,"activity change, negative = growth inhibition"
CCCN1C2CCCC1CC(NC(=S)Nc1cc(C)cc(C)c1)C2 (centres undefined),"inconclusive [inhibitor, single point]",
CC1=C(C(=O)Nc2ccccc2C)C(c2ccc(C)o2)C2=C(CCCC2=O)N1 (centres undefined),inactive,
COc1ccc(S(=O)(=O)N2CCC(O)(c3ccc(Cl)cc3)CC2)cc1OC,"inconclusive [inhibitor, single point]",
O=C(NCC(c1ccco1)N1CCc2ccccc21)C(=O)Nc1ccc(F)cc1F (centres undefined),active: 3.26 µM,
C[C@@H]1CN([C@@H](C)CO)C(=O)CCCn2cc(nn2)CO[C@H]1CN(C)S(=O)(=O)c1ccc(-n2cccn2)cc1,inactive,
Cc1ccc(S(=O)(=O)NCC(=O)N2CCc3ccccc3C2)cc1,inactive,
COc1ccc(CCNC(=O)[C@H](C)N2C(=O)N3CCc4c([nH]c5ccccc45)[C@@]3(C)C2=O)cc1OC,"inconclusive [inhibitor, single point]",
CCN(Cc1ccccc1)C(=O)CN1C(=O)CSc2ccc(S(=O)(=O)N(CC)CC)cc21,"inconclusive [inhibitor, single point]",
O=C(CNS(=O)(=O)c1ccc(Br)s1)Nc1ccc2c(c1)OCCO2,"inconclusive [inhibitor, single point]",
O=C(N/N=C/c1coc2ccc(Cl)cc2c1=O)c1ccncc1,"inconclusive [inhibitor, partial curve]",
CCCC/C(O)=C1\C(=O)CC(C)(C)CC1=Nc1ccc(OC)cc1,"inconclusive [inhibitor, partial curve, poor fit]",
CC(=O)Nc1ccc(C(=O)NCC2CCCCC2)cc1,inactive,
COc1ccc(-c2c3c(nc4sc(C(=O)Nc5ccccc5F)c(N)c24)CC(C)(C)CC3=O)cc1,"inconclusive [inhibitor, partial curve]",
C/C(=N\OCC(=O)NC12CC3CC(CC(C3)C1)C2)c1cc2ccccc2o1,"inconclusive [inhibitor, single point]",
CCc1ccc(C(=O)OCC(=O)NC2CCCC2)cc1,inactive,
O=C(c1ccco1)N1CCN(c2nc(C(F)(F)F)nc3c2nnn3Cc2ccccc2)CC1,"inconclusive [inhibitor, single point]",
COc1ccc(OC)c2[nH]c(=O)c(CCNC(C)=O)cc12,inactive,
COc1cccc2[nH]c(C(=O)NN)c(N)c12,active: 16.4 µM,
O=C(COC(=O)/C=C/c1ccc(F)cc1)Nc1cccc(S(=O)(=O)N2CCCC2)c1,"inconclusive [inhibitor, single point]",
O=C(/C(Br)=C/Nc1cc(Cl)ccc1Cl)C(F)(F)F,active: 14.6 µM,
COC(=O)c1ccccc1NC1c2ccccc2C(=O)N1c1cccnc1 (centres undefined),"inconclusive [inhibitor, partial curve]",
CCOC(=O)c1ccc(NC(=S)N(CCCN2CCCC(C)C2)Cc2ccco2)cc1 (centres undefined),"inconclusive [inhibitor, single point]",
Cc1cc(C)cc(C(=O)Nc2ccc(NC(=O)c3cccs3)cc2)c1,"inconclusive [inhibitor, single point]",

Compound,Potency,"activity change, negative = growth inhibition"
Cc1cc(C(=O)COC(=O)CC2Sc3ccccc3NC2=O)c(C)n1-c1cccc(C(F)(F)F)c1 (centres undefined),"inconclusive [inhibitor, single point]",
COc1c(O)ccc2c1CN1CCc3cc4c(cc3C1C2)OCO4 (centres undefined),"inconclusive [inhibitor, partial curve]",
O=C(Nc1ccccc1)c1cc(C2CCCN(C(=O)c3ccccc3)C2)on1 (centres undefined),inactive,
COc1cc2[nH]c(=S)n(Cc3ccccc3)c(=O)c2cc1OC,"inconclusive [inhibitor, single point]",
Cc1ccc(SC[C@H](CC(C)C)N2CCN(C)CCC2=O)cc1,"inconclusive [inhibitor, single point]",
CCCCN1C(N)=NC[C@@H]1c1ccccc1,active: 13 µM,
CC(=O)Nc1ccc(NC(=O)C(C)OC(=O)C2CCN(S(=O)(=O)c3cccs3)CC2)cc1 (centres undefined),inactive,
O=C(c1ccco1)N1CCC(c2nc3c(nnn3Cc3ccccc3Cl)c(=O)[nH]2)CC1,"inconclusive [inhibitor, single point]",
O=c1[nH]c(SCc2ccc(Cl)cc2)nc2ccsc12,"inconclusive [inhibitor, single point]",
C#CCCc1cscc1/C=[N+](\[O-])c1ccc(C(=O)OCC)cc1,"inconclusive [inhibitor, single point]",
COc1ccc(OC)c(-c2csc(NC(=O)COC(=O)C3(C)CC3(Cl)Cl)n2)c1 (centres undefined),"inconclusive [inhibitor, single point]",
CCc1nc2c(OCc3cc(Cl)cc(Cl)c3)cccn2c1N(C)C(=O)CC(C)C,"inconclusive [inhibitor, single point]",
CCOC(=O)C1=C(C)N(C[C@@H]2CC[C@@H](Cc3ccc(-c4ccccc4)cc3)O2)C(=O)NC1c1cccc2ccccc12 (some centres undefined),"inconclusive [inhibitor, single point]",
Cc1cc(C(C)(C)C)ccc1OCCCCN1CCCC1,"inconclusive [inhibitor, single point]",
COc1ccc(C2=NS(=O)(=O)N(C)C(C(=O)N3CCCCC3C)=C2)cc1 (centres undefined),"inconclusive [inhibitor, single point]",
COc1ccc(F)cc1COc1nc(C)nc2ccccc12,active: 18.4 µM,
COC(=O)c1ccc(CSc2ccc3nnc(-c4cccc(F)c4)n3n2)o1,active: 7.31 µM,
CCn1c(SCc2ccc(C(=O)Nc3nccs3)cc2)nnc1-c1ccc(N)cc1,"inconclusive [inhibitor, single point]",
CC1=C(C(=O)OCc2ccc3c(c2)OCO3)C(c2cccc([N+](=O)[O-])c2)NC(=O)N1 (centres undefined),"inconclusive [inhibitor, full curve]",
CC1CCN(C(=O)c2ccc(Br)c(S(=O)(=O)N3CCOCC3)c2)CC1,,inconclusive: -30.3% [inhibitor]
COc1ccccc1Nc1ncc(C(=O)N2CCN(Cc3ccc(OC)c(OC)c3OC)CC2)c2ccccc12,"inconclusive [inhibitor, single point]",
O=C(Cn1c(=O)nc(-c2ccccc2F)c2cc(Cl)ccc21)Nc1ccccc1C(F)(F)F,"inconclusive [inhibitor, partial curve]",
Cc1n[nH]c(=O)c2c(NC(=O)CSc3nc4ccccc4c(=O)n3CCCO)oc(C)c12,"inconclusive [inhibitor, single point]",
